Assay results taken from PubChem BioAssay AID1159614 (National Center for Advancing Translational Sciences (NCATS), 2016).
Out of some 45,000 compounds screened, about 65 (0.1%) were called active. Calls follow the shape of the dose curve; as a rule, active = well fitted activation curve with a large enough effect; inconclusive = small, poorly fitted or top-dose-only effect; inactive = no such curve, though single readings can be large or run the other way. The list shows a part of the results.

target: Galactocerebrosidase (Homo sapiens) (UniProt P54803); assay: A Novel Cell-Based Assay to Identify Small Molecules for B -Galactocerebrosidase; settings: 145M-Twi-hGALC-G270D cells (Twitcher mouse brain line with human GALC G270D), HMU-beta-Gal fluorescence, 48 h; series mostly up to 57.5 µM; activation: at the top concentration; also: 0% is about no effect; nearly all actives have a fitted effect of over 65% in size
Sequence of UniProt P54803 (P54803 whole entry, looked up): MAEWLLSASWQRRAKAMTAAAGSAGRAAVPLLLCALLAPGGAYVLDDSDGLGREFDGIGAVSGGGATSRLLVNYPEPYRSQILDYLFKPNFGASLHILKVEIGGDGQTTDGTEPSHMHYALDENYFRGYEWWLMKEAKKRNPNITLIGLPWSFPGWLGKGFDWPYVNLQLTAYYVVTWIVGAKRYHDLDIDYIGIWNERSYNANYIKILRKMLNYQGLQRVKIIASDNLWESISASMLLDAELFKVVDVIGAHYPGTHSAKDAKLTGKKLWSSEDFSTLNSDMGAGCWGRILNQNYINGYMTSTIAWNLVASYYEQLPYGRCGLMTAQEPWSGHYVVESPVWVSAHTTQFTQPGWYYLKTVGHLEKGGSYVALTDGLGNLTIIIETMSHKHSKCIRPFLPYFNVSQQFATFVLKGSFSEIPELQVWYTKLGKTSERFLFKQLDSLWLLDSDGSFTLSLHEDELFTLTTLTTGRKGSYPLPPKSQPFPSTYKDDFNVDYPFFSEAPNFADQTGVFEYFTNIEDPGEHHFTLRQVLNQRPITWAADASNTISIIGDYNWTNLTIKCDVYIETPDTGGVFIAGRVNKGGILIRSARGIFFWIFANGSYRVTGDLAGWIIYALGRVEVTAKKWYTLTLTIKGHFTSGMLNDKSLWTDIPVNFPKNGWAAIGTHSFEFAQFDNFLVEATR
Procedure, shortened: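 Fluorogenic HMU-b-Gal hydrolysis (0.1 mM final, pH 5.2 citrate-phosphate with 1 mg/mL sodium taurocholate; carbonate stop buffer) measures mutant GALC activity after compound treatment of live 145M-Twi Twitcher brain cells stably carrying human GALC-G270D, with wild-type GALC line alongside; activation sought.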

activation, inactive:
Cn1c(=O)c2c(nc(NCCc3ccccc3)n2Cc2ccccc2Br)n(C)c1=O -4.33%
CCOc1ccc(C(=O)N(Cc2nc(-c3cccc(C)c3)no2)C(C)C)cc1 -37.8%
Cc1cccc(C(=O)Nc2ccccc2OCc2cc(=O)n3ccccc3n2)c1 10%
CCOc1ccc(NC(=O)c2cn(C3CCCCC3)c(=O)c3c2c2ccccc2n3C)cc1 -23.7%
Cc1ccc(-c2nnc(SCC(=O)NC(C)(C)C)nc2-c2ccc(C)cc2)cc1 -4.52%
CC(=O)OCC(=O)[C@@]1(O)[C@H](OC(C)=O)C[C@H]2[C@@H]3CCC4=CC(=O)C=C[C@]4(C)[C@@]3(F)[C@@H](O)C[C@@]21C -16.8%
CCOc1ccc(CNC(=O)CCCn2c(=O)c3cccn3c3ccccc32)cc1 -18.8%
COc1ccc(-c2nc(CN3CCC(C(=O)NCc4ccc(C)cc4)CC3)c(C)o2)cc1OC -4.87%
CC(=O)N1CCCc2cc(S(=O)(=O)N3CCC(C(=O)Nc4c(C)cccc4C)CC3)ccc21 -14.8%
COc1ccc(CCNC(=O)C(=O)NCC(c2cccs2)S(=O)(=O)c2cccs2)cc1 (centres undefined) -8.18%
COc1ccccc1CNc1ncnc2onc(-c3ccc(F)cc3)c12 -6.27%
COc1ccc(C(=O)n2nc(-c3cccnc3)nc2NCc2ccccc2)cc1OC -4.87%
CCOc1ccccc1Nc1nc2ccccc2nc1NS(=O)(=O)c1ccc(Cl)cc1 -25%
Cc1cc(F)ccc1NC(=O)Cn1nc(N2CCN(c3ccccc3)CC2)ccc1=O -4.78%
Cc1ccc(-c2noc(-c3cccnc3NCc3ccco3)n2)cc1 -2.77%
COc1ccc(CNC(=O)CN2C(=O)COc3ccc(S(=O)(=O)N4CCCCC4)cc32)cc1 -9.58%
COc1ccc2c(CNC3CCCCCC3)c(C(=O)O)n(Cc3ccc(C)cc3)c2c1 3.12%
CCc1nnc(SCc2cccc(Cl)c2)c2cc3sccc3n12 -30.8%
COc1ccc(-c2cc(OC(=O)c3ccccc3Cl)c3c(C)oc(C)c3c(=O)c2)cc1OC -19.9%
COc1cc(OC)c(NS(=O)(=O)c2c(C)nc3sc(C)cn3c2=O)cc1Cl -4.4%
CCOc1cccc(C(=O)Nc2ccc3oc(-c4ccncc4)nc3c2)c1 -9.21%
Cc1cc(C)c(NC(=O)CSc2nc3nccnc3c(=O)n2CCc2c[nH]c3ccccc23)c(C)c1 -6.62%
COc1ccc(NC(=O)Cn2c(=O)n(CCCCCC(=O)NCc3ccc4c(c3)OCO4)c(=O)c3sccc32)cc1Cl -22.9%
O=C(Nc1cccc(C(=O)OCc2cc(=O)n3c4c(sc3n2)CCCC4)c1)c1ccc(Cl)cc1 -8.09%
CCCSc1oc(-c2cccs2)nc1S(=O)(=O)c1ccc(C)cc1 -9.33%
Cc1ccc(Cn2c(C)c3cnn(CC(=O)O)c(=O)c3c2C)cc1 -4.81%
O=C(Cn1cc(SCc2ccc(F)cc2)c2ccccc21)N1CCCCC1 -8.48%
COc1ccc(C)cc1NC(=O)c1sc2nc(-c3ccc(F)cc3)cn2c1C -6.05%
CCN(CC)C(=O)c1sc2c(c1C)c(=O)n(Cc1ccccc1)c(=O)n2Cc1cc(C)ccc1C -10.1%
O=C(NCc1ccccc1)c1cnc2sc(N3CCCC3)nn2c1=O -9.68%
CCOc1cc(S(=O)(=O)NCCc2c(C)[nH]c3ccc(C)cc23)ccc1F 0.395%
COc1ccc2c(c1)c(CC(=O)Nc1cc(C)cc(C)c1)c(C)n2C(=O)c1ccc(Cl)cc1 -10.8%
O=C(Nc1ccccc1C(F)(F)F)c1cc2nc(-c3ccccc3)cc(-c3ccccc3)n2n1 -8.59%
CCc1ccc2c(c1)NC(c1ccc(F)cc1)=NC(c1ccncc1)=N2 -0.85%
COc1ccccc1NC(=O)c1sc(-c2ccc(Cl)cc2)cc1N -31.9%
O=C(CCCn1ncn2c(cc3occc32)c1=O)NCc1ccccc1F -5.26%
Cc1cc(C)c2oc(C(=O)Nc3ccc(S(=O)(=O)Nc4ncccn4)cc3)cc(=O)c2c1 -16.1%
Cc1cc2c(cc1S(=O)(=O)C(C)CC(=O)NC1CCC(C)CC1)OCC(=O)N2 (centres undefined) -1.98%
CCc1ccc(NC(=O)c2sc(-n3nc(C)c(Cc4ccc5c(c4)OCO5)c3C)nc2C)cc1 0.0603%
Cc1ccc2oc(C(=O)Nc3ccc(S(=O)(=O)N4CCCCCC4)cc3)cc(=O)c2c1 -12.5%
CC(C)Cn1cnc2c(N)nc3ccccc3c21 -16.3% [at 23.8 µM]
COc1ccccc1NC(=O)Cn1nc2c3cc(F)ccc3n(Cc3cccc(C)c3)cc-2c1=O -13%
CCOc1ccccc1NC(=O)Cn1c(=O)n(-c2ccc(C)c(C)c2)c(=O)c2oc3ccccc3c21 -2.69%
O=C(Oc1ccccc1F)c1nc(SCc2ccccc2F)ncc1Cl -11.9%
CC(=O)N1CCCc2cc(S(=O)(=O)NCc3ccccc3Cl)ccc21 -8.5%
CCN1CCC(N(Cc2ccc3c(c2)OCO3)C(=O)Nc2cccc(C)c2C)CC1 -8.38%
Cc1ccc2nc(-c3cccc(NC(=O)CSc4ccc(Cl)cc4)c3)oc2c1 -16.2%
COc1ccc(Nc2ncc3c(n2)CCN(Cc2cccc(F)c2F)C3)c(OC)c1 -17.3%
Cc1ccc(S(=O)(=O)c2nnn3c2nc(N2CCCC(C)C2)c2cc(Cl)ccc23)cc1C (centres undefined) -5.99%
CCN(C(=O)Cn1cc(S(=O)(=O)N2CCN(c3ccccc3F)CC2)c2ccccc2c1=O)c1ccc(C)c(C)c1 -2.11%
Cc1ccc(NC(=O)Cn2c(=O)n(-c3ccccc3)c(=O)c3ccc(C(=O)NCc4ccc5c(c4)OCO5)cc32)cc1 -15.3%
Oc1c(C(c2ccccc2Cl)N2CCC(O)CC2)sc2nc(-c3ccco3)nn12 (centres undefined) -4.04%
CCN(Cc1ccccc1)C(=O)C1CCC(CNS(=O)(=O)c2ccc3c(c2)CCCC(=O)N3)CC1 (centres undefined) -8.33%
Cc1ccc(C)c(NC(=O)c2cc(S(=O)(=O)N3CCN(c4cccc(Cl)c4)CC3)ccc2F)c1 -14.1%
CCc1ccc(Nc2nc3c(S(=O)(=O)c4ccc(C)cc4)nnn3c3ccsc23)cc1 -8.65%
Cc1ccc(NC(=O)CSc2nc3ccccc3nc2Cc2ccccc2)c(Cl)c1 -13%
Cc1ccc(-n2ncc(C(=O)NCc3ccccn3)c2C2CCN(C(=O)OC(C)(C)C)CC2)cc1C 7.15%
COc1cccc(CNC(=O)C2CCN(Cc3cc4ccccc4n3Cc3ccccc3)CC2)c1OC -13.5%
Cc1ccc(Cl)cc1NC(=O)c1nnn(Cc2ccccc2)c1N -8.41%
